In the supplement of paper PMC11741623:
The list shows a part of the results. Interaction screen of human proteins with wild-type SARS-CoV-2 proteins by split-DHFR complementation in yeast, 1 µg/mL methotrexate. Value = fitness of the pair (three or more lineages) minus that of the viral protein without a human partner, on a scale set by negative (0) and fused positive (1) controls, mean of up to three cultures; higher = more likely to interact. Active = false discovery rate below 0.05 (one-sided t-test) in at least one culture. Nearly all pairs are not hits, and differences among them are mostly noise (correlation between cultures about 0.3); most hits were seen in one culture only. Human sequences are the Swiss-Prot entries looked up by gene name; the clone may be another isoform. NSP2 values were corrected by the authors for a growth advantage. Listed are human proteins with a hit and a random twelfth of the others.

B1: LSR, Q86X29 (protein)
chain: MQQDGLGVGTRNGSGKGRSVHPSWPWCAPRPLRYFGRDARARRAQTAAMALLAGGLSRGLGSHPAAAGRDAVVFVWLLLSTWCTAPARAIQVTVSNPYHVVILFQPVTLPCTYQMTSTPTQPIVIWKYKSFCRDRIADAFSPASVDNQLNAQLAAGNPGYNPYVECQDSVRTVRVVATKQGNAVTLGDYYQGRRITITGNADLTFDQTAWGDSGVYYCSVVSAQDLQGNNEAYAELIVLGRTSGVAELLPGFQAGPIEDWLFVVVVCLAAFLIFLLLGICWCQCCPHTCCCYVRCPCCPDKCCCPEALYAAGKAATSGVPSIYAPSTYAHLSPAKTPPPPAMIPMGPAYNGYPGGYPGDVDRSSSAGGQGSYVPLLRDTDSSVASEVRSGYRIQASQQDDSMRVLYYMEKELANFDPSRPGPPSGRVERAMSEVTSLHEDDWRSRPSRGPALTPIRDEEWGGHSPRSPRGWDQEPAREQAGGGWRARRPRARSVDALDDLTPPSTAESGSRSPTSNGGRSRAYMPPRSRSRDDLYDQDDSRDFPRSRDPHYDDFRSRERPPADPRSHHHRTRDPRDNGSRSGDLPYDGRLLEEAVRKKGSEERRRPHKEEEEEAYYPPAPPPYSETDSQASRERRLKKNLALSRESLVV
B2: UGP2, Q16851 (protein)
chain: MSRFVQDLSKAMSQDGASQFQEVIRQELELSVKKELEKILTTASSHEFEHTKKDLDGFRKLFHRFLQEKGPSVDWGKIQRPPEDSIQPYEKIKARGLPDNISSVLNKLVVVKLNGGLGTSMGCKGPKSLIGVRNENTFLDLTVQQIEHLNKTYNTDVPLVLMNSFNTDEDTKKILQKYNHCRVKIYTFNQSRYPRINKESLLPVAKDVSYSGENTEAWYPPGHGDIYASFYNSGLLDTFIGEGKEYIFVSNIDNLGATVDLYILNHLMNPPNGKRCEFVMEVTNKTRADVKGGTLTQYEGKLRLVEIAQVPKAHVDEFKSVSKFKIFNTNNLWISLAAVKRLQEQNAIDMEIIVNAKTLDGGLNVIQLETAVGAAIKSFENSLGINVPRSRFLPVKTTSDLLLVMSNLYSLNAGSLTMSEKREFPTVPLVKLGSSFTKVQDYLRRFESIPDMLELDHLTVSGDVTFGKNVSLKGTVIIIANHGDRIDIPPGAVLENKIVSGNLRILDH
B3: OR2B6, P58173 (protein)
chain: MNWVNDSIIQEFILLGFSDRPWLEFPLLVVFLISYTVTIFGNLTIILVSRLDTKLHTPMYFFLTNLSLLDLCYTTCTVPQMLVNLCSIRKVISYRGCVAQLFIFLALGATEYLLLAVMSFDRFVAICRPLHYSVIMHQRLCLQLAAASWVTGFSNSVWLSTLTLQLPLCDPYVIDHFLCEVPALLKLSCVETTANEAELFLVSELFHLIPLTLILISYAFIVRAVLRIQSAEGRQKAFGTCGSHLIVVSLFYSTAVSVYLQPPSPSSKDQGKMVSLFYGIIAPMLNPLIYTLRNKEVKEGFKRLVARVFLIKK
B4: ZPBP2, Q6X784 (protein)
chain: MMRTCVLLSAVLWCLTGVQCPRFTLFNKKGFIYGKTGQPDKIYVELHQNSPVLICMDFKLSKKEIVDPTYLWIGPNEKTLTGNNRINITETGQLMVKDFLEPLSGLYTCTLSYKTVKAETQEEKTVKKRYDFMVFAYREPDYSYQMAVRFTTRSCIGRYNDVFFRVLKKILDSLISDLSCHVIEPSYKCHSVEIPEHGLIHELFIAFQVNPFAPGWKGACNGSVDCEDTTNHNILQARDRIEDFFRSQAYIFYHNFNKTLPAMHFVDHSLQVVRLDSCRPGFGKNERLHSNCASCCVVCSPATFSPDVNVTCQTCVSVLTYGAKSCPQTSNKNQQYED
B5: CEBPG, P53567 (protein)
chain: MSKISQQNSTPGVNGISVIHTQAHASGLQQVPQLVPAGPGGGGKAVAPSKQSKKSSPMDRNSDEYRQRRERNNMAVKKSRLKSKQKAQDTLQRVNQLKEENERLEAKIKLLTKELSVLKDLFLEHAHNLADNVQSISTENTTADGDNAGQ

Each binder was assayed against SARS-CoV-2 NSP10 (assay: yeast fitness gain over the viral ORF with no human partner (scaled fitness); higher = more likely to interact).
Protocol: (§1)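 Split mouse DHFR complementation in pooled diploid yeast: human ORFeome clones carry one fragment and viral ORFs the other; barcoded lineages compete in 1 µg/mL methotrexate and fitness is read by barcode sequencing in up to three cultures.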
For B1, the yeast fitness gain was inactive: 0.0053.
In the case of B2, the yeast fitness gain is reported as inactive: -0.0618.
B3 was tested, and the yeast fitness gain was inactive: -0.0102.
For B4, the yeast fitness gain was inactive: 0.0788.
In the case of B5, the yeast fitness gain is reported as inactive: 0.0317.

What follows are binders tested against SARS-CoV-2 NSP13 in the same assay as above.
Protocol: as §1
With B1 the yeast fitness gain was inactive: 0.0662.
For B2, the yeast fitness gain was inactive: -0.0531.
B3 was tested, and the yeast fitness gain was inactive: -0.0546.
With B4 the yeast fitness gain was inactive: -0.251.
For B5, the yeast fitness gain was inactive: -0.184.

What follows are binders tested against SARS-CoV-2 NSP2 in the same assay as above.
Protocol: as §1
With B1 the yeast fitness gain was inactive: -0.085.
B3 was tested, and the yeast fitness gain was inactive: -0.235.
With B4 the yeast fitness gain was inactive: -0.0786.

Each binder was assayed against SARS-CoV-2 NSP4 in the same assay as above.
Protocol: as §1
In the case of B1, the yeast fitness gain is reported as inactive: -0.0996.

These binders were tested against SARS-CoV-2 NSP5 in the same assay as above.
Protocol: as §1
In the case of B1, the yeast fitness gain is reported as inactive: 0.0468.
For B3, the yeast fitness gain was inactive: -0.0853.

Each binder was assayed against SARS-CoV-2 ORF10 in the same assay as above.
Protocol: as §1
In the case of B1, the yeast fitness gain is reported as inactive: -0.0361.
With B2 the yeast fitness gain was inactive: 0.0451.
For B4, the yeast fitness gain was inactive: -0.204.

The binders below were run against SARS-CoV-2 ORF3B in the same assay as above.
Protocol: as §1
In the case of B1, the yeast fitness gain is reported as inactive: 0.0379.
With B3 the yeast fitness gain was inactive: -0.0822.
With B4 the yeast fitness gain was inactive: -0.179.

These binders were tested against SARS-CoV-2 ORF6 in the same assay as above.
Protocol: as §1
For B1, the yeast fitness gain was inactive: 0.114.
In the case of B2, the yeast fitness gain is reported as inactive: -0.237.
With B3 the yeast fitness gain was inactive: -0.0176.
In the case of B4, the yeast fitness gain is reported as inactive: -0.041.
With B5 the yeast fitness gain was inactive: -0.0566.

These binders were tested against SARS-CoV-2 ORF7A in the same assay as above.
Protocol: as §1
With B1 the yeast fitness gain was inactive: -0.244.
With B3 the yeast fitness gain was inactive: 0.00333.
In the case of B5, the yeast fitness gain is reported as inactive: -0.0454.

What follows are binders tested against SARS-CoV-2 ORF7B in the same assay as above.
Protocol: as §1
In the case of B1, the yeast fitness gain is reported as inactive: -0.192.

These binders were tested against SARS-CoV-2 ORF9B in the same assay as above.
Protocol: as §1
In the case of B1, the yeast fitness gain is reported as inactive: 0.126.
With B2 the yeast fitness gain was inactive: 0.0593.
For B4, the yeast fitness gain was inactive: 0.0346.
With B5 the yeast fitness gain was inactive: 0.00449.

What follows are binders tested against SARS-CoV-2 ORF8 in the same assay as above.
Protocol: as §1
With B2 the yeast fitness gain was inactive: -0.24.
In the case of B4, the yeast fitness gain is reported as inactive: -0.371.
With B5 the yeast fitness gain was inactive: -0.0813.

These binders were tested against SARS-CoV-2 NSP12 in the same assay as above.
Protocol: as §1
In the case of B3, the yeast fitness gain is reported as inactive: -0.0132.

These binders were tested against SARS-CoV-2 NSP15 in the same assay as above.
Protocol: as §1
For B3, the yeast fitness gain was inactive: -0.119.

Each binder was assayed against SARS-CoV-2 NSP6 in the same assay as above.
Protocol: as §1
B3 was tested, and the yeast fitness gain was inactive: 0.0367.
For B4, the yeast fitness gain was inactive: 0.041.

Each binder was assayed against SARS-CoV-2 NSP8 in the same assay as above.
Protocol: as §1
With B3 the yeast fitness gain was inactive: -0.0267.
B5 was tested, and the yeast fitness gain was inactive: 0.00543.

Each binder was assayed against SARS-CoV-2 NSP7 in the same assay as above.
Protocol: as §1
For B4, the yeast fitness gain was inactive: -0.0686.

The binders below were run against SARS-CoV-2 S in the same assay as above.
Protocol: as §1
For B5, the yeast fitness gain was inactive: -0.198.
